In PubChem BioAssay AID1814 (Broad Institute, 2009):
The whole screen tested about 300,000 compounds, of which about 22,000 (7.3%) were called active. Inconclusive means that the source gave no clear call. Such entries were picked first, then a sample of the others. Rule as the data show it: active = activity score below about -60%; inconclusive = mostly about -28% to -61%; inactive = positive scores.

Assay: Activators via SNCA 5'UTR binding, MLPCN (AID 1814)
Settings: alpha-synuclein 5'UTR reporter, activators screen; active compounds read low; tested at 7.5 µM

For `CCOc1ccc2[nH]c(C(=O)N/N=C/c3ccc(OC)cc3)cc2c1`, which activity score is on record?
The activity score was inactive: 75.9%.

With `Cc1ccc(Nc2cccc(C(F)(F)F)c2)nn1` as the compound, how does the activity score read?
The activity score was inconclusive: -54.4%.

For `Cc1ccc(N(C)S(=O)(=O)c2ccc(-c3cnc(C4CC4)o3)cc2)cc1`, which activity score is on record?
Its activity score is inactive: 83.9%.

Which activity score does the source give for `CCC/C(=N/NC(=O)c1ccc2c(c1)OCO2)c1cccs1` here?
Its activity score is active: -69.3%.

Which activity score does the source give for `Cc1[nH]n(-c2ccccc2)c(=O)c1C=NC1CCCCCC1` here?
Its activity score is inconclusive: -51.3%.

For `O=C(NCCN1CCCC1)c1ccc2c(=O)n(CCc3ccccc3)c(=O)[nH]c2c1`, which activity score is on record?
The activity score was inconclusive: -56.6%.

Which activity score does the source give for `COc1ccc(/C=N/Nc2nccnc2Cl)cc1` here?
The activity score was inconclusive: -52.4%.

For `COc1cccc(OC)c1C(=O)NC(=S)Nc1ccc2oc(-c3ccncc3)nc2c1`, which activity score is on record?
The activity score was inconclusive: -52.5%.

For `CN(C)CCN(C(=O)/C=C/c1cccs1)c1nc2ccc(F)cc2s1`, which activity score is on record?
The activity score was inconclusive: -41.6%.

Which activity score does the source give for `Cc1cc(C)c2ccc(N)nc2c1O` here?
Its activity score is inactive: 64.7%.

With `N#Cc1c(C(F)(F)F)cc(-c2ccco2)nc1SCc1ccncc1` as the compound, how does the activity score read?
The activity score was inconclusive: -43.3%.

With `CC(C)OCCCNC(=O)CCC(=O)NNc1nc2ccccc2c2nc(-c3ccccc3)nn12` as the compound, how does the activity score read?
The activity score was inconclusive: -61.1%.

Which activity score does the source give for `Cc1sc2nc(-c3ccccc3)oc(=O)c2c1C` here?
Its activity score is inconclusive: -60.8%.

With `O=C(O)COc1ccc(/C=N/n2c(COc3ccccc3)nc3ccccc3c2=O)cc1` as the compound, how does the activity score read?
The activity score was inconclusive: -36.1%.

With `CC(C)(C)OC(=O)NCCCCCC(=O)N/N=C/c1coc2ccccc2c1=O` as the compound, how does the activity score read?
Its activity score is inconclusive: -44.1%.

For `CCCN(CCC)C(=O)Cn1c2ccccc2c2nc(=O)cc(C)n21`, which activity score is on record?
The activity score was inconclusive: -52.6%.

Which activity score does the source give for `COc1cccc(C(=O)C(C#N)=C(SC)SC)c1` here?
The activity score was inconclusive: -47.4%.

Which activity score does the source give for `O=C1CCC(=O)N1c1ccc(CSc2nc3ccccc3[nH]2)cc1` here?
The activity score was inconclusive: -47.9%.

Which activity score does the source give for `CC(=O)O[C@H]1[C@H](C)OC=C[C@@H]1OC(C)=O` here?
Its activity score is inconclusive: -51.8%.

With `O=C(O)C=C1CCN(c2ncc(C(F)(F)F)cc2Cl)CC1` as the compound, how does the activity score read?
The activity score was inconclusive: -60.5%.

Which activity score does the source give for `CC(C)(C)c1ccc(-c2nc3[nH]c(=O)cc(NC(=O)c4ccco4)n3n2)cc1` here?
Its activity score is inconclusive: -40.3%.

With `COc1ccc(C2=NN(C(=O)COc3ncnc4ccccc34)C(c3ccco3)C2)cc1` (centres undefined) as the compound, how does the activity score read?
The activity score was inactive: 64%.

For `O=C(Cn1nnc2ccccc21)N/N=C\C=C\c1ccccc1`, which activity score is on record?
The activity score was inconclusive: -41.3%.

With `COc1ccc(-c2nnc(SCC(=O)N3CCCCC3)o2)cc1` as the compound, how does the activity score read?
Its activity score is inconclusive: -50.9%.

For `CCc1noc(C)c1C(=O)NCCc1ccccc1`, which activity score is on record?
The activity score was inconclusive: -50.6%.

Which activity score does the source give for `Cc1ccc2c(c1)/C(=N/N1C(=O)c3ccccc3C1=O)C(=O)N2` here?
Its activity score is inconclusive: -51.1%.

For `C/C(=N\NC(=O)c1cc(-c2cccnc2)nc2ccccc12)c1ccccc1O`, which activity score is on record?
Its activity score is inactive: 85.7%.

For `COc1cccc2cc(C(=O)OC3CCN(C)CC3)c(=O)oc12`, which activity score is on record?
Its activity score is active: -87.8%.

With `CCCCn1c(N)c(N(CCOC)C(=O)c2ccc(Br)s2)c(=O)[nH]c1=O` as the compound, how does the activity score read?
Its activity score is inconclusive: -32.8%.

For `C=CCN(C(=O)CSc1nc2ccsc2c(=O)n1Cc1ccccn1)c1ccccc1`, which activity score is on record?
Its activity score is inconclusive: -41.5%.

For `Cc1cccc(CSc2nnc(-c3ccco3)o2)c1`, which activity score is on record?
The activity score was active: -64.2%.

Which activity score does the source give for `Cc1cc(C(=O)CSc2cccc[n+]2[O-])c(C)n1-c1ccccc1` here?
Its activity score is inactive: 56.7%.

With `Cc1ccc(C(=O)NC2CCCCCC2)cc1S(=O)(=O)N1CCOCC1` as the compound, how does the activity score read?
The activity score was active: -70.3%.

For `Cc1ccc2nc(Nc3nc(CSc4nc5ccccc5s4)cc(=O)[nH]3)nc(C)c2c1`, which activity score is on record?
The activity score was inactive: 61.3%.

Which activity score does the source give for `CC1(C)CC(=O)c2sc(NC(=O)c3cccs3)nc2C1` here?
The activity score was inconclusive: -58.8%.

Which activity score does the source give for `O=C(NNC(=O)c1sccc1-n1cccc1)Nc1ccccc1` here?
Its activity score is inconclusive: -61.2%.

For `CSC1CCCCC1(O)CSc1nc2c(cc1C#N)CCCC2` (centres undefined), which activity score is on record?
Its activity score is inactive: 56.5%.

Which activity score does the source give for `c1ccc2c(c1)Nc1cc3ccccc3cc1S2` here?
The activity score was active: -135%.

Which activity score does the source give for `O=C(Nc1ccccc1)c1cc2ccc3ccccc3c2s1` here?
The activity score was active: -89.6%.

Which activity score does the source give for `CC(C)CSC1=NSC2=NC(=O)/C(=C\c3ccccc3)C(=N)N12` here?
Its activity score is inconclusive: -56.1%.

For `CNc1ncc(C(=O)c2ccc(-c3ccccc3)cc2)s1`, which activity score is on record?
Its activity score is inconclusive: -54%.

With `CC/C(=N/NC(=O)c1ccc(Br)o1)c1ccc(Cl)cc1` as the compound, how does the activity score read?
Its activity score is inconclusive: -56.8%.

Which activity score does the source give for `O=[N+]([O-])c1cccc(/C([O-])=C(/C(=S)Nc2ccccc2F)[n+]2ccccc2)c1` here?
Its activity score is inconclusive: -58.6%.

For `CCOC(=O)C(C)Oc1cccc2c(=O)n(CC(=O)NCc3ccc4c(c3)OCO4)ccc12` (centres undefined), which activity score is on record?
The activity score was inactive: 65%.

With `Cc1ccc(C)c(-c2csc(-c3cccnc3)n2)c1` as the compound, how does the activity score read?
The activity score was inconclusive: -52.1%.

For `Cc1ccc2c(c1)NC(=O)CC(c1ccccc1)=N2`, which activity score is on record?
Its activity score is inconclusive: -48.1%.

For `N#Cc1cc2[nH]c3ccccc3c2[n+](-c2ccc([N+](=O)[O-])cc2)c1N`, which activity score is on record?
The activity score was inconclusive: -54.1%.

Which activity score does the source give for `COc1ccc(CNC(=O)c2nc(S(=O)(=O)Cc3ccccc3)ncc2Cl)cc1` here?
Its activity score is inactive: 48.8%.

For `O=C(COC(=O)c1n[nH]c2ccccc12)Nc1ccccc1`, which activity score is on record?
Its activity score is inconclusive: -51.2%.

With `Cc1cc(C(=O)N/N=C/c2ccc(C)o2)c2ccccc2n1` as the compound, how does the activity score read?
The activity score was inactive: 65.5%.

With `O=C(/C=C/c1ccccc1[N+](=O)[O-])Nc1ccccc1` as the compound, how does the activity score read?
The activity score was inconclusive: -58.8%.

With `COc1cccc(NC(=O)Nc2ccc3c(c2)N(C)C(=O)CS3)c1` as the compound, how does the activity score read?
The activity score was inconclusive: -48.2%.

For `CC(=C/c1ccccc1)/C=N/n1cnnc1`, which activity score is on record?
Its activity score is inactive: 55.9%.

Which activity score does the source give for `CCc1cccc(CC)c1NC(=O)Cn1c(-c2ccccc2Cl)nc2ccccc21` here?
The activity score was inconclusive: -34.2%.

For `Cc1cc(C)nc(N/N=C/c2c[nH]c3ccccc23)n1`, which activity score is on record?
Its activity score is inconclusive: -46.3%.

Which activity score does the source give for `O=C(Nc1ccccc1)Nc1nc(-c2ccc(F)cc2)cs1` here?
The activity score was inconclusive: -40.6%.

With `Cc1cc2nc(-c3cccnc3SCC(=O)NC3CC3)[nH]c2cc1C` as the compound, how does the activity score read?
Its activity score is active: -115%.

For `Cn1ccnc1SCC(=O)c1ccc(F)cc1`, which activity score is on record?
The activity score was inconclusive: -54.9%.

Which activity score does the source give for `COc1cc(/C=C(\C#N)c2nc3ccccc3n2C)cc(OC)c1O` here?
The activity score was inconclusive: -44.8%.
